Measured values published in PubChem BioAssay AID1963576 (National Center for Advancing Translational Sciences (NCATS), 2024).
Out of some 46,000 compounds screened, about 60 (0.1%) were called active. Not shown: some 3% with an inconclusive outcome. The call rests on the fitted dose curve; in most records, active means well fitted inhibition curve with a large enough effect; inconclusive means small, poorly fitted or top-dose-only effect; inactive means no such curve, though single readings can be large or run the other way. This is one part of the list.

experiment: Primary qHTS assay for Inhibitors of ovarian cancer metastasis using an organotypic tumor microenvironment (TME) model.; further: nearly all actives have a fitted effect of over 65% in size;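 on activity change, negative = inhibition: plate controls were DMSO wells for no effect and tomatine positive control wells for full effect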; details: SKOV3ip1-GFP adhesion/invasion on 3D omental model, fluorescence; series mostly up to 45.8 µM; activity change, negative = inhibition: at the top concentration
In short: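 Adhesion/invasion was scored as fixed GFP-labeled SKOV3ip1 cell counts (488/509 nm), normalized to DMSO and tomatine controls. Cancer cells in serum-free medium, with four compound doses (0.36-46 umol/L), sat 2 hr at RT then 16 hr at 37 C on a 48 hr fibroblast/mesothelial/ECM culture.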

outcome, inactive:
O=C(Nc1ccc(-c2nc3cc(NC(=O)c4ccc(Cl)cc4)ccc3o2)cc1)c1ccc(Cl)cc1
CC(=O)Nc1ccc(NC(=O)C(c2ccccc2)N2Cc3ccccc3C2=O)cc1 (stereo unspecified)
CCc1ccc(C(=O)NC2=NC(c3cc(OC)ccc3OC)CC(=O)N2)cc1 (stereo unspecified)
Cc1nc2ccc(S(=O)(=O)NC(C(=O)N3CCN(c4cccc(Cl)c4)CC3)C(C)C)cc2s1 (stereo unspecified)
COc1ccc(N2C(=O)CCSC23C(=O)N(Cc2ccc(F)cc2)c2ccccc23)cc1 (stereo unspecified)
O=C(c1ccc2c(c1)N(Cc1ccc(Cl)cc1)C(=O)c1ccccc1S2(=O)=O)N1CCN(Cc2ccccc2)CC1
CC1CCN(S(=O)(=O)c2cc(C(=O)NCc3ccccc3)n(C)c2)CC1
COCCNC(=O)c1cnn(-c2cccc(C)c2)c1-n1cccc1
COc1ccc(C(=O)NNc2ncnc3c2cnn3-c2ccc(C)cc2C)cc1
CN(C(=O)c1ccc2c(c1)N(Cc1ccc(F)cc1)C(=O)c1ccccc1S2(=O)=O)C1CCCCC1
CCOC(=O)Cn1c(=O)oc2cc(S(=O)(=O)NC(C)c3ccccc3)ccc21 (stereo unspecified)
O=C(c1ccccc1F)N1c2nc(-c3ccco3)nn2C2(CCCCC2)[C@@H]2CCCC[C@@H]21
O=C(Nc1ccc(Br)cc1)C1CCN(c2ncccn2)CC1
CCOC(=O)c1cc(-c2ccc(OC)cc2)n(CCC(=O)NCc2ccc(OC)cc2)c1C
CC(C)NC(=O)N1CCN(S(=O)(=O)c2ccc3c(ccn3C)c2)CC1
Cc1ccc(C(=O)c2cn(CC(=O)NCc3ccccc3Cl)c3nc(C)ccc3c2=O)cc1
CCOC(=O)c1sc(NC(=O)C2c3ccccc3Oc3ccccc32)c(C#N)c1C
CCOC(=O)c1c(C)[nH]c(C)c1S(=O)(=O)N1CCCC(C(=O)NCc2cccc(OC)c2)C1 (stereo unspecified)
COC(=O)c1ccc2c(c1)N(Cc1ccc(Cl)cc1)C(=O)c1ccccc1S2
COCCCNC(=O)CCc1c(C)nc2nc(-c3cc(OC)cc(OC)c3)nn2c1C
CCOCCCNC(=O)c1cnc2sc(N3CCCCC3)nn2c1=O
CCCCCn1c(CCNC(=O)c2ccc(F)cc2)nc2ccccc21
Cc1cc(C)cc(OCC(=O)N(Cc2cccs2)c2ccc(Cl)cc2)c1
COc1ccc(-n2c(C)c(C(C)=O)c3cc(OC(=O)COc4ccccc4)ccc32)cc1
CCC(Oc1ccccc1)C(=O)Nc1cc(-c2cccc(C)c2)nn1-c1ccccc1 (stereo unspecified)
Cc1ccc(CNC(=O)Cc2c(C)c3c(cc(C)c4c(C)coc43)oc2=O)cc1
Fc1ccccc1Cc1cn2cc(-c3ccc(Cl)cc3)nc2s1
COc1ccccc1Cn1c(CNS(=O)(=O)c2ccc(C(C)C)cc2)nc2cccnc21

Activity change, negative = inhibition, inactive:
Cc1ccc(-c2nn(C)c(=O)c3ccccc23)cc1S(=O)(=O)NCCCN(C)C 6.88%
COC(=O)c1ccc(-c2nc(-c3ccc(OC)c(OC)c3)no2)cc1 -6.34%
Cc1ccc(-c2onc(C)c2C)cc1S(=O)(=O)Nc1cccc(Cl)c1C -20.7%
Cc1ccc(CCNC(=O)CCn2nc(-c3ccc(Cl)cc3)ccc2=O)cc1 -3.7%
Cc1cc(C)cc(NC(=O)CCc2c(C)nc3c(c2C)c(=O)n(C)c(=O)n3C)c1 -2.9%
CCc1ccc(-n2nc(CO)c(C(=O)NCc3cccnc3)n2)cc1 -0.34%
COc1cc2ncc3c(-c4ccccc4)nn(CC(=O)NC4CCCCC4)c3c2cc1OC -0.0435%
Cc1cn2c(=O)c(S(=O)(=O)Nc3ccc(N4CCOCC4)cc3)c(C)nc2s1 2.86%
Cc1nc(N2CCCC2)ncc1C(=O)NCc1ccc(F)cc1 -2.55%
Cc1ccc2occ(CC(=O)Nc3ccc(Cl)c(C(F)(F)F)c3)c2c1 -6.57%
Cc1cc(N2CCC(C(=O)Nc3ccccc3Cl)CC2)n2nc(C)c(-c3ccc(Cl)cc3)c2n1 4.92%
Fc1cccc(-c2nnn3c2nc(NCc2ccc4c(c2)OCO4)c2ccccc23)c1 -6.06%
CCC(CC)C(=O)Nc1nnc(S(=O)(=O)N2c3ccccc3CC2C)s1 (stereo unspecified) -7.31%
CCOCCCn1c(=N)c(C(=O)NC(C)c2ccccc2)cc2c(=O)n3cccc(C)c3nc21 (stereo unspecified) 24.7%
COc1ccc(C2=C(C)C(N3CCN(c4ccc(OC)cc4)CC3)=NS2(=O)=O)cc1 -3.31%
CCc1ccc(CN(C(=O)Nc2cccc(Cl)c2)c2ccccn2)cc1 -13%
Cc1c(Cl)cccc1NS(=O)(=O)c1ccc(NS(=O)(=O)c2ccc3c(c2)OCCO3)cc1 26.9%
COc1ccc(Cl)cc1NC(=O)c1cnc(N2CCCCC2)c2ccccc12 -9.26%
COc1ccccc1CNC(=O)c1ccc(-n2c(C)cc3c2CCCC3)cc1 2.22%
O=C(NCCS(=O)(=O)c1ccc(C(F)(F)F)cn1)c1ccc(Cl)cc1 -15%
CCCCOC(=O)/C(C#N)=C\c1ccc(-c2ccc(Cl)cc2)o1 1.01%
CCOc1ccc(NC(=O)CCn2cccn2)cc1 -10.1%
CCOC(=O)c1ccccc1NC(=O)N1CC(C)Oc2ccc(C)cc21 (stereo unspecified) 0.229%
CCOc1ccc(NC(=O)C2CCN(S(=O)(=O)c3c(C)noc3/C=C/c3ccco3)CC2)cc1 -16.3%
CC(C)CC(=O)Nc1n[nH]c2c1CN(C(=O)C1CCN(C)CC1)C2(C)C -0.941%
COc1cc(NC(=O)C(=O)Nc2ccc3nc4n(c(=O)c3c2)CCCCC4)cc(OC)c1OC -28.2%
Cc1ccc(-c2nc3ccccn3c2Nc2ccc3c(c2)OCCO3)o1 -5.79%
O=C1CN(C(=O)COc2ccc(Cl)cc2)C(c2ccc(F)cc2)c2cc(Cl)ccc2N1 (stereo unspecified) -3.8%
CCOC(=O)N1CCN(C(=O)c2ccc3c(c2)N(Cc2cccc(Cl)c2)C(=O)c2ccccc2S3=O)CC1 (stereo unspecified) 21.3%
CC(=O)c1ccc(C(=O)N(Cc2cccnc2)c2nc3c(C)c(C)ccc3s2)cc1 -2.08%
Cc1ccc(C)c(NC(=O)CN(C)S(=O)(=O)c2ccc3c(c2)CCC(=O)N3)c1 5.31%
Cc1ccccc1C(=O)Nc1nnc2n1CCS2 5.38%
OCc1ccccc1O[C@@H]1O[C@H](CO)[C@H](O)[C@H](O)[C@H]1O -8.58%
CCCS(=O)(=O)c1nc(S(=O)(=O)c2ccc(C)cc2)c(N(C)Cc2ccccc2)s1 6.65%
CCCC(=O)NC(C)c1nc2ccccc2n1Cc1ccccc1 (stereo unspecified) 16%
COc1cccc(-c2ccc3c(N)c(C(=O)Nc4cc(C(F)(F)F)ccc4OC)sc3n2)c1 -12.3%
COc1cc(CNC(=O)CCCCC=CC(C)C)ccc1O -17.5%
Cc1cc(C(=O)N2CCN(c3cccc(C)c3C)CC2)c2c(C)nn(-c3ccccc3)c2n1 -5.69%
Cc1cccc(OCC(=O)Nc2cc(-c3ccccc3F)nn2-c2ccccc2)c1 -4.39%
Cc1c(C(=O)N(C)C)sc2c1c(=O)n(-c1ccc(Cl)cc1)c(=O)n2Cc1ccccc1F -2.39%
COc1ccccc1CNC(=O)CCC1N=C2c3ccccc3N=C(SCC(=O)Nc3ccc(N(C)C)cc3)N2C1=O (stereo unspecified) -29.3%
COc1ccc(S(=O)(=O)N2CCCN(CC(=O)Nc3ccc(OC)cc3OC)CC2)cc1 -5.89%
COCCNc1nc2c(c(=O)n(Cc3cccc(Br)c3)c(=O)n2C)n1C -30%
Cc1nc2nc(SCC(=O)NC3CCCCC3)nn2c(C)c1Cc1ccccc1Cl -6.13%
COc1ccc(OC)c2sc(N3CCN(C(=O)CCS(=O)(=O)c4ccc(F)cc4)CC3)nc12 4.78%
Cc1cc(Cl)ccc1NC(=O)Cn1nnc2sc(-c3ccccc3)cc2c1=O 2.4%
CC(C)c1ccc(Nc2ncnc3onc(-c4ccc(F)cc4)c23)cc1 3.25%
COc1cc(NC(=O)N2CCC(CN3CCOCC3)CC2)cc(OC)c1OC -7.24%
CCCn1c2ccccc2c2cnn(CC(=O)N3CCCC(C)C3)c(=O)c21 (stereo unspecified) 12.6%
CCCCn1nc(NC(=O)c2cccc(Cl)c2)c2cc3cccc(C)c3nc21 4.87%
COc1cccc(N2CCN(C(=O)c3cc4c(=O)oc5ccc(C)cc5c4s3)CC2)c1 1.98%
O=C(NCCCc1nc2ccccc2n1Cc1ccc(Cl)cc1)C1CCCCC1 -4.18%
Cc1ccc(CNC(=O)C2CCN(S(=O)(=O)c3cn(C)cn3)CC2)cc1 -16.8%
CCc1ccccc1-n1c(C)nc2cc(C(=O)NCCc3ccc(Cl)cc3)ccc21 -10.3%
CC(C)OCCCNC(=O)CN1C(=O)COc2ccc(S(=O)(=O)N3CCCCCC3)cc21 -0.148%
CC(C)N(Cc1ccccc1)S(=O)(=O)c1ccc(-c2cc(C(F)(F)F)on2)s1 -7.36%
CCCS(=O)(=O)N1CC(=O)N(c2cccc(Cl)c2C)C(C)(C(=O)NC2CCCC2)C1 (stereo unspecified) 0.447%
Cc1cc(-c2ccc(C)c(S(=O)(=O)NCc3cccc(Br)c3)c2)on1 2.65%
O=C(O)CCNc1cc(N2CCc3ccccc3CC2)nc(-c2ccccn2)n1 -3.79%
COc1cccc(CNC(=O)Cn2ncn3nc(-c4cccs4)cc3c2=O)c1OC -16.4%
COc1ccc(-n2nc(C(=O)N3CCN(c4cccc(C)c4C)CC3)c3c4ccccc4n(C)c3c2=O)cc1Cl -9.88%
Cc1ccc2onc(CC(=O)N3CCN(c4cc(Cl)ccc4C)CC3)c2c1 -23.3%
Fc1ccc(-c2nn(-c3ccccc3Cl)c3c2cnc2ccccc23)cc1 10.2%
CC(NC(=O)c1ccc2c(c1)CCN2S(=O)(=O)c1ccccc1)c1ccccc1 (stereo unspecified) 0.49%
COc1ccc(CNC(=O)c2nc(SCc3ccccc3F)ncc2Cl)cc1 -13.3%
CCC(=O)N1CCCc2cc(S(=O)(=O)N3CCC(C(=O)NC4CCCCC4)CC3)ccc21 -17.7%
O=C(c1ccc2c(c1)N(Cc1ccc(F)cc1)C(=O)c1ccccc1S2(=O)=O)N1CCCC1 7.77%
COc1ccccc1NC(=O)c1oc2ccccc2c1NC(=O)c1cccc(OC)c1OC -16.2%
